{"source": "PubChem BioAssay AID504937", "about": "(National Center for Advancing Translational Sciences (NCATS), 2011)", "note": "Hit rate of the full screen: of about 340,000 compounds, about 20 (0.006%) were called active. Inconclusive results, whose numbers are uncertain, are shown with a selection of clear calls. The call rests on the fitted dose curve; in most records, active means well fitted inhibition curve with a large enough effect; inconclusive means small, poorly fitted or top-dose-only effect; inactive means no such curve, though single readings can be large or run the other way. Potencies of inconclusive entries are doubtful fits and often do not repeat. Potency means the concentration at half of the fitted maximal effect; tags describe the fitted curve by direction and shape."}
{"biological_target": "Sphingomyelin phosphodiesterase (Homo sapiens) (UniProt P17405)", "sequence (P17405 whole entry, looked up)": "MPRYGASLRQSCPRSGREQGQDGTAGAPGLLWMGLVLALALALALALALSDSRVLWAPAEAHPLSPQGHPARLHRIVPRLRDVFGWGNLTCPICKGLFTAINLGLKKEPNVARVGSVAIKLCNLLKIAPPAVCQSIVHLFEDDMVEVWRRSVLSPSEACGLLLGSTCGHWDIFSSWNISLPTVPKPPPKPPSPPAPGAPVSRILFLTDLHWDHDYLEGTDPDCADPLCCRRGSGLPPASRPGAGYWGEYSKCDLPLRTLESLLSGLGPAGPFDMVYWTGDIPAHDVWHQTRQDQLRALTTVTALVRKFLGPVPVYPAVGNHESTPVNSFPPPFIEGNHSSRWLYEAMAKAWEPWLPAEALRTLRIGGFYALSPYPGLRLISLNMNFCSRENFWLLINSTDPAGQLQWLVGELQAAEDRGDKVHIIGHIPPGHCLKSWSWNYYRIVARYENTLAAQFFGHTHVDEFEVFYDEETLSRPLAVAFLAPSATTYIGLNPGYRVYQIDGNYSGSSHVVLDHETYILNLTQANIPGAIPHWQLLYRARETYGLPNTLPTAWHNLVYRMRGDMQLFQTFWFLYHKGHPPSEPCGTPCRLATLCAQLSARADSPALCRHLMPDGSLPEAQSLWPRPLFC", "experiment": "Inhibitors of Secretory Acid Sphingomyelinase (S-ASM): qHTS", "conditions": "placental ASM, HMU-PC fluorogenic substrate (series up to 57.5 µM), 60 min; activity change, negative = inhibition: at the top concentration", "how_it_was_run": "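HMU-PC0 cleavage (9 uM final) by human placental ASM, 60 min at 37 °C following 10 min compound exposure at RT; stopped at pH 10, fluorescence Ex 386/Em 447 nm.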"}
{"smiles": "CC(OC(=O)c1cccnc1Cl)C(=O)Nc1ccc2c(c1)OCO2", "note": "(stereo unspecified)", "activity change, negative = inhibition": "inactive: 3.26%"}
{"smiles": "COc1ccccc1N=Nc1nc(-c2ccccc2)c(-c2ccccc2)[nH]1", "Potency": "inconclusive: 79.4 µM [inhibitor, single point]"}
{"smiles": "Cc1c(C(=O)N2CCN(c3ccc(F)cc3)CC2)sc2ncnc(N3CCN(c4ccccn4)CC3)c12", "Potency": "inconclusive: 631 µM [inhibitor, partial curve, poor fit]"}
{"smiles": "COc1cc(/C=C(\\C#N)c2nc3ccccc3s2)cc([N+](=O)[O-])c1O", "Potency": "inconclusive: 158 µM [inhibitor, partial curve]"}
{"smiles": "Cc1ccc(C(=O)Nc2cccc([N+](=O)[O-])c2)cc1S(=O)(=O)Nc1ccc(NC(=O)c2ccccc2)cc1", "Potency": "inconclusive: 100 µM [inhibitor, single point]"}
{"smiles": "COc1ccc2c(c1)-c1c(sn(-c3ccc(OC)c(OC)c3)c1=S)C(C)(C)N2", "Potency": "inconclusive: 126 µM [inhibitor, partial curve, poor fit]"}
{"smiles": "CCOC(=O)c1cc(-c2ccc(N3CCOCC3)cc2)nn1-c1ccccc1", "Potency": "inconclusive: 31.6 µM [inhibitor, partial curve, poor fit]"}
{"smiles": "CCOC(=O)c1nc(Nc2ccc(Nc3ccccc3)cc2)c2ccccc2n1", "Potency": "inconclusive: 70.8 µM [inhibitor, partial curve]"}
{"smiles": "O=C(c1cccc(Cl)c1)N1CCC2CC1c1cc(-c3ccccc3)ccc12", "note": "(stereo unspecified)", "Potency": "inconclusive: 224 µM [inhibitor, partial curve, poor fit]"}
{"smiles": "O=C(Cn1nc(C(=O)O)c2ccccc2c1=O)Nc1cccc(S(=O)(=O)N2CCCCC2)c1", "Potency": "inconclusive: 126 µM [inhibitor, partial curve, poor fit]"}
{"smiles": "Nc1nonc1-n1nnc(C(=O)N/N=C/c2cc(Br)ccc2O)c1CNc1ccccc1", "Potency": "inconclusive: 141 µM [inhibitor, partial curve, poor fit]"}
{"smiles": "COc1ccc(CCN2C(=O)N(c3ccc(OC)cc3)C(=O)C2CC(=O)Nc2ccccc2)cc1", "note": "(stereo unspecified)", "Potency": "inconclusive: 89.1 µM [inhibitor, single point]"}
{"smiles": "CCOC(=O)c1c(C)n(C)c2ccc(OCC(O)Cn3nc(C)c(Br)c3C)cc12", "note": "(stereo unspecified)", "Potency": "inconclusive: 100 µM [inhibitor, partial curve, poor fit]"}
{"smiles": "CCCn1c(SCC(=O)Nc2cc(C)on2)nc2c1c(=O)n(C)c(=O)n2C", "activity change, negative = inhibition": "inactive: -0.58%"}
{"smiles": "O=C(COC(=O)c1cccc(Cl)c1)Nc1cc(S(=O)(=O)N2CCOCC2)ccc1N1CCOCC1", "Potency": "inconclusive: 126 µM [inhibitor, partial curve, poor fit]"}
{"smiles": "COc1cc(/C=C2/C(=O)N(c3cccc(Br)c3)N=C2C)cc(OC)c1O", "Potency": "inconclusive: 126 µM [inhibitor, partial curve, poor fit]"}
{"smiles": "COc1cc(OC)c(C=CC(=O)c2ccccc2O)c(OC)c1", "Potency": "inconclusive: 89.1 µM [inhibitor, partial curve, poor fit]"}
{"smiles": "CCCCNc1ccc2c3c(cccc13)C(=O)N(CCCC)C2=O", "Potency": "inconclusive: 89.1 µM [inhibitor, single point]"}
{"smiles": "CCCCCCCCCCCCCCCC(=O)OC(CC(=O)O)C[N+](C)(C)C", "note": "(stereo unspecified)", "Potency": "inconclusive: 89.1 µM [inhibitor, single point]"}
{"smiles": "O=C1NN(c2ccccc2)C(=O)/C1=C/c1ccc(-c2cccc(C(=O)O)c2)o1", "Potency": "inconclusive: 708 µM [inhibitor, partial curve, poor fit]"}
{"smiles": "CCCCC(=O)OCC(=O)C1(O)Cc2c(O)c3c(c(O)c2C(OC2CC(NC(=O)C(F)(F)F)C(O)C(C)O2)C1)C(=O)c1c(OC)cccc1C3=O", "note": "(stereo unspecified)", "Potency": "inconclusive: 112 µM [inhibitor, partial curve, poor fit]"}
{"smiles": "COc1cc(-c2nc3cc(C)ccn3c2NC2CCCCC2)ccc1-c1ccc(C(C)=O)cc1", "Potency": "inconclusive: 79.4 µM [inhibitor, single point]"}
{"smiles": "Cc1ccc(C(C)C)c(OCC(=O)NN2C(=O)c3ccccc3C2=O)c1", "Potency": "inconclusive: 79.4 µM [inhibitor, single point]"}
{"smiles": "CC(C)=C[C@H]1C[C@H](C)[C@H]2CC[C@H](C)c3c(O[C@@H]4OC[C@@H](O)[C@H](O)C4O)c(O)c(C)c1c32", "note": "(stereo partly specified)", "Potency": "inconclusive: 100 µM [inhibitor, partial curve, poor fit]"}
{"smiles": "COc1cc(C(=S)N2CCCC2)ccc1OCc1ccc(C)cc1", "activity change, negative = inhibition": "inactive: -3.67%"}
{"smiles": "Cc1[nH]nc(-c2ccc(OCc3cnn(-c4ccccc4)c3)cc2O)c1Oc1ccccc1F", "Potency": "inconclusive: 158 µM [inhibitor, partial curve, poor fit]"}
{"smiles": "Cc1cc(C)cc(Nc2ccc(C(=O)O)cc2N)c1", "activity change, negative = inhibition": "inactive: 80.6%"}
{"smiles": "CC(C)(C)C(=O)Nc1c(Br)c(C2CC2)nn1-c1ccccc1", "activity change, negative = inhibition": "inactive: -0.807%"}
{"smiles": "Nc1nc(Cl)cc(N2CCC(c3cc(-c4ccc(Cl)cc4)n[nH]3)CC2)n1", "Potency": "inconclusive: 79.4 µM [inhibitor, partial curve, poor fit]"}
{"smiles": "O=C(Nc1ccc(F)cc1)N1CCN(c2ccc3nnc(-c4ccc(F)cc4)n3n2)CC1", "Potency": "inconclusive: 282 µM [inhibitor, partial curve, poor fit]"}
{"smiles": "O=C(N/N=C/c1ccc(O)c(O)c1)c1ccc(CSc2cccc3cccnc23)cc1", "Potency": "inconclusive: 56.2 µM [inhibitor, partial curve, poor fit]"}
{"smiles": "COc1cc(OC)c(NC(=O)CCc2nc(-c3cccs3)no2)cc1Cl", "Potency": "inconclusive: 112 µM [inhibitor, partial curve, poor fit]"}
{"smiles": "Cc1cc(C)cc(NC(=O)CSc2nc3c(c(=O)n2C)SC(C)C3)c1", "note": "(stereo unspecified)", "activity change, negative = inhibition": "inactive: 6.03%"}
{"smiles": "Cc1ccsc1C(=O)N(c1nc2ccccc2s1)c1c(C)cccc1C", "activity change, negative = inhibition": "inactive: -1.49%"}
{"smiles": "COc1cc(/C=C2\\C(=O)N(c3ccc(NC(C)=O)cc3)N=C2c2ccccc2)ccc1O", "Potency": "inconclusive: 100 µM [inhibitor, single point]"}
{"smiles": "COc1ccc(N(C(=O)Nc2ccc(Cl)cc2)C2=NCCC2)cc1", "Potency": "inconclusive: 224 µM [inhibitor, partial curve, poor fit]"}
{"smiles": "Cc1ccccc1NC(=O)CN1CCC(C(=O)c2ccc3c(c2)OCCO3)CC1", "activity change, negative = inhibition": "inactive: -0.391%"}
{"smiles": "COc1ccc(S(=O)(=O)N(C)C[C@H]2Oc3c(NC(=O)Nc4ccc(C(F)(F)F)cc4)cccc3C(=O)N([C@H](C)CO)C[C@@H]2C)cc1", "Potency": "inconclusive: 31.6 µM [inhibitor, partial curve]"}
{"smiles": "O=C(NCc1nnc2c3ccccc3c(-c3ccccc3)nn12)c1ccc(Cl)cc1", "Potency": "inconclusive: 79.4 µM [inhibitor, single point]"}
{"smiles": "Nc1ccc2nc(CCCCCCCCc3nc4ccc(N)cc4[nH]3)[nH]c2c1", "Potency": "inconclusive: 794 µM [inhibitor, partial curve, poor fit]"}
{"smiles": "Cn1c(CBr)c(C(=O)c2ccc([N+](=O)[O-])cc2)c(=O)n(C)c1=O", "activity change, negative = inhibition": "inactive: 0.507%"}
{"smiles": "CCOc1cc(/C=N\\NC(=O)c2ccc(NC(=O)C(C)(C)C)cc2)ccc1OC(=O)c1cccc(C)c1", "Potency": "inconclusive: 501 µM [inhibitor, partial curve, poor fit]"}
{"smiles": "O=C(COC(=O)c1ccc(O)cc1O)Nc1cc(-c2ccccc2)nn1-c1ccccc1", "Potency": "inconclusive: 112 µM [inhibitor, partial curve, poor fit]"}
{"smiles": "O=C(Cn1[nH]c(=O)c2ccccc2c1=O)NNC(=O)c1ccccc1", "activity change, negative = inhibition": "inactive: 7.86%"}
{"smiles": "O=S(=O)(c1ccccc1)c1ncc(C(F)(F)F)cc1Cl", "activity change, negative = inhibition": "inactive: 4.5%"}
{"smiles": "Cc1cc(C)n2cc(CSc3nnc(-c4ccccc4)c(-c4ccccc4)n3)nc2n1", "Potency": "inconclusive: 112 µM [inhibitor, partial curve, poor fit]"}
{"smiles": "O=C(NCc1ccc2c(c1)OCO2)C1CC(=O)N(CCc2ccc(F)cc2)C1", "note": "(stereo unspecified)", "activity change, negative = inhibition": "inactive: -0.767%"}
{"smiles": "Cc1nc2ccc(F)cc2cc1C(=O)Nc1ccc(Cl)c(Cl)c1", "activity change, negative = inhibition": "inactive: 1.75%"}
{"smiles": "CCC(CC)NC(=O)CON=C1c2ccccc2-c2ccccc21", "activity change, negative = inhibition": "inactive: -0.153%"}
{"smiles": "C/C(=N/NC(=O)c1ccc(-c2ccccc2)cc1)c1cc(O)cc(O)c1", "Potency": "inconclusive: 50.1 µM [inhibitor, partial curve]"}
{"smiles": "COC(=O)c1ccc(C(=O)NC2CCCc3c2cnn3-c2ccccc2F)nc1", "note": "(stereo unspecified)", "activity change, negative = inhibition": "inactive: -0.457%"}
{"smiles": "COc1ccc(OC)c2sc(N(CCN(C)C)C(=O)/C=C/c3cccs3)nc12", "activity change, negative = inhibition": "inactive: -20.6%"}
{"smiles": "CN(C)S(=O)(=O)c1ccc(S(=O)(=O)Nc2ccc3c(c2)oc2ccccc23)cc1", "Potency": "inconclusive: 112 µM [inhibitor, partial curve, poor fit]"}
{"smiles": "COc1cccc(NC(=O)c2ccnc(N3CCC(C(=O)NCc4cc(OC)ccc4OC)CC3)c2)c1", "activity change, negative = inhibition": "inactive: 35.1%"}
{"smiles": "COc1ccc(NC(=O)/C(C#N)=C\\C=C\\c2ccco2)cc1", "activity change, negative = inhibition": "inactive: -15.2%"}
{"smiles": "OC(CNCCC1C=Nc2ccccc21)Cn1c2ccc(Cl)cc2c2cc(Cl)ccc21", "note": "(stereo unspecified)", "Potency": "inconclusive: 50.1 µM [inhibitor, partial curve, poor fit]"}
{"smiles": "Cc1ccc(S(=O)(=O)N(C)Cc2nc(-c3ccncc3)no2)cc1", "activity change, negative = inhibition": "inactive: 0.0315%"}
{"smiles": "Cn1c(=O)c2c(nc(NCc3ccccc3)n2CCCc2ccccc2)n(C)c1=O", "Potency": "inconclusive: 282 µM [inhibitor, partial curve, poor fit]"}
{"smiles": "CC(=O)Oc1ccc(-c2ccc(C(=O)OCC(=O)N(C)CC(=O)Nc3ccccc3Cl)cc2)cc1", "Potency": "inconclusive: 112 µM [inhibitor, partial curve, poor fit]"}
{"smiles": "CN(C)c1ccc(N=Nc2ccccc2C(=O)OCC(=O)NC2CCCC2)cc1", "Potency": "inconclusive: 89.1 µM [inhibitor, partial curve, poor fit]"}
{"smiles": "COc1ccc(-c2nn(-c3ccccc3)cc2C(=O)NC(=S)NNC(=O)c2ccncc2)cc1", "activity change, negative = inhibition": "inactive: -0.649%"}
